This is one part of the list.
Key:
Assay in all cases: glycan array binding signal (z-score within array); higher = stronger binding
Settings in all cases: glycan notation: IUPAC condensed, linker removed
[1] = molecular target: GlcNAc(b1-3)Gal(b1-4)GlcNAc(b1-3)Gal(b1-4)GlcNAc(b1-2)Man(a1-3)[GlcNAc(b1-3)Gal(b1-4)GlcNAc(b1-3)Gal(b1-4)GlcNAc(b1-2)Man(a1-6)]Man(b1-4)GlcNAc(b1-4)[Fuc(a1-6)]GlcNAc
Summary of the method: (§1)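 Glycan array binding is given as a within-array Z-score, which can be read as non-binding when negative. The arrays, 3228 of them, came from the Consortium for Functional Glycomics database and were retained only where the protein sequence was available. Z-scores were averaged across arrays of the same protein sequence at different concentrations or buffers and across linkers.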

[2] = molecular target: GlcNAc(b1-3)Gal(b1-4)GlcNAc(b1-3)Gal(b1-4)GlcNAc(b1-2)[GlcNAc(b1-3)Gal(b1-4)GlcNAc(b1-3)Gal(b1-4)GlcNAc(b1-6)]Man(a1-6)[GlcNAc(b1-3)Gal(b1-4)GlcNAc(b1-3)Gal(b1-4)GlcNAc(b1-2)Man(a1-3)]Man(b1-4)GlcNAc(b1-4)[Fuc(a1-6)]GlcNAc
Summary of the method: as §1

[3] = molecular target: GlcNAc(b1-3)Gal(b1-4)GlcNAc(b1-3)Gal(b1-4)GlcNAc(b1-3)Gal(b1-4)GlcNAc(b1-2)Man(a1-3)[GlcNAc(b1-3)Gal(b1-4)GlcNAc(b1-3)Gal(b1-4)GlcNAc(b1-3)Gal(b1-4)GlcNAc(b1-2)Man(a1-6)]Man(b1-4)GlcNAc(b1-4)GlcNAc
Summary of the method: as §1

[4] = molecular target: GlcNAc(b1-3)Gal(b1-4)GlcNAc(b1-3)Gal(b1-4)GlcNAc(b1-3)Gal(b1-4)GlcNAc(b1-2)Man(a1-3)[GlcNAc(b1-3)Gal(b1-4)GlcNAc(b1-3)Gal(b1-4)GlcNAc(b1-3)Gal(b1-4)GlcNAc(b1-2)Man(a1-6)]Man(b1-4)GlcNAc(b1-4)[Fuc(a1-6)]GlcNAc
Summary of the method: as §1

[5] = molecular target: GlcNAc(b1-3)Gal(b1-4)GlcNAc(b1-3)Gal(b1-4)GlcNAc(b1-3)Gal(b1-4)GlcNAc(b1-2)[GlcNAc(b1-3)Gal(b1-4)GlcNAc(b1-3)Gal(b1-4)GlcNAc(b1-3)Gal(b1-4)GlcNAc(b1-6)]Man(a1-6)[GlcNAc(b1-3)Gal(b1-4)GlcNAc(b1-3)Gal(b1-4)GlcNAc(b1-3)Gal(b1-4)GlcNAc(b1-2)Man(a1-3)]Man(b1-4)GlcNAc(b1-4)[Fuc(a1-6)]GlcNAc
Summary of the method: as §1

[6] = molecular target: GlcNAc(b1-3)Gal(b1-4)GlcNAc(b1-3)Gal(b1-4)GlcNAc(b1-3)Gal(b1-4)GlcNAc(b1-3)Gal(b1-4)GlcNAc(b1-2)Man(a1-3)[GlcNAc(b1-3)Gal(b1-4)GlcNAc(b1-3)Gal(b1-4)GlcNAc(b1-3)Gal(b1-4)GlcNAc(b1-3)Gal(b1-4)GlcNAc(b1-2)Man(a1-6)]Man(b1-4)GlcNAc(b1-4)GlcNAc
Summary of the method: as §1

[7] = molecular target: GlcNAc(b1-3)Gal(b1-4)GlcNAc(b1-3)Gal(b1-4)GlcNAc(b1-3)Gal(b1-4)GlcNAc(b1-3)Gal(b1-4)GlcNAc(b1-2)Man(a1-3)[GlcNAc(b1-3)Gal(b1-4)GlcNAc(b1-3)Gal(b1-4)GlcNAc(b1-3)Gal(b1-4)GlcNAc(b1-3)Gal(b1-4)GlcNAc(b1-2)Man(a1-6)]Man(b1-4)GlcNAc(b1-4)[Fuc(a1-6)]GlcNAc
Summary of the method: as §1

[8] = molecular target: GlcNAc(b1-3)Gal(b1-4)GlcNAc(b1-3)Gal(b1-4)GlcNAc(b1-3)Gal(b1-4)GlcNAc(b1-3)Gal(b1-4)GlcNAc(b1-2)[GlcNAc(b1-3)Gal(b1-4)GlcNAc(b1-3)Gal(b1-4)GlcNAc(b1-3)Gal(b1-4)GlcNAc(b1-3)Gal(b1-4)GlcNAc(b1-6)]Man(a1-6)[GlcNAc(b1-3)Gal(b1-4)GlcNAc(b1-3)Gal(b1-4)GlcNAc(b1-3)Gal(b1-4)GlcNAc(b1-3)Gal(b1-4)GlcNAc(b1-2)Man(a1-3)]Man(b1-4)GlcNAc(b1-4)[Fuc(a1-6)]GlcNAc
Summary of the method: as §1

[9] = molecular target: GlcNAc(b1-3)Gal(b1-4)GlcNAc(b1-3)Gal(b1-4)GlcNAc(b1-3)GalNAc
Summary of the method: as §1

[10] = molecular target: GlcNAc(b1-3)Gal(b1-4)GlcNAc(b1-3)GalNAc
Summary of the method: as §1

[11] = molecular target: GlcNAc(b1-3)Gal(b1-4)GlcNAc(b1-3)[GlcNAc(b1-3)Gal(b1-4)GlcNAc(b1-3)]GalNAc
Summary of the method: as §1

[12] = molecular target: GlcNAc(b1-3)Gal(b1-4)GlcNAc(b1-6)[Gal(b1-3)]GalNAc
Summary of the method: as §1

[13] = molecular target: GlcNAc(b1-3)Gal(b1-4)GlcNAc(b1-6)[GlcNAc(b1-3)Gal(b1-3)]GalNAc
Summary of the method: as §1

[14] = molecular target: GlcNAc(b1-3)Gal(b1-4)GlcNAc(b1-6)[GlcNAc(b1-3)]Gal(b1-4)GlcNAc
Summary of the method: as §1

[15] = molecular target: GlcNAc(b1-3)GalNAc
Summary of the method: as §1

[16] = molecular target: GlcNAc(b1-3)Man
Summary of the method: as §1

[17] = molecular target: GlcNAc(b1-3)[GlcNAc(b1-4)][GlcNAc(b1-6)]GlcNAc
Summary of the method: as §1

[18] = molecular target: GlcNAc(b1-3)[GlcNAc(b1-6)]Gal(b1-4)GlcNAc
Summary of the method: as §1

[19] = molecular target: GlcNAc(b1-3)[GlcNAc(b1-6)]GalNAc
Summary of the method: as §1

[20] = molecular target: GlcNAc(b1-4)Gal(b1-4)GlcNAc
Summary of the method: as §1

[21] = molecular target: GlcNAc(b1-4)GlcNAc
Summary of the method: as §1

[22] = molecular target: GlcNAc(b1-4)GlcNAc(b1-4)GlcNAc
Summary of the method: as §1

[23] = molecular target: GlcNAc(b1-4)GlcNAc(b1-4)GlcNAc(b1-4)GlcNAc(b1-4)GlcNAc
Summary of the method: as §1

[24] = molecular target: GlcNAc(b1-4)GlcNAc(b1-4)GlcNAc(b1-4)GlcNAc(b1-4)GlcNAc(b1-4)GlcNAc
Summary of the method: as §1

[25] = molecular target: GlcNAc(b1-4)[GlcNAc(b1-6)]GalNAc
Summary of the method: as §1

[26] = molecular target: GlcNAc(b1-6)Gal(b1-4)GlcNAc
Summary of the method: as §1

[27] = molecular target: GlcNAc(b1-6)GalNAc
Summary of the method: as §1

[28] = molecular target: GlcNAc6S(b1-3)Gal(b1-4)GlcNAc
Summary of the method: as §1

[29] = molecular target: Kdn(a2-3)Gal(b1-3)GalNAc
Summary of the method: as §1

[30] = molecular target: Kdn(a2-3)Gal(b1-3)GlcNAc
Summary of the method: as §1

[31] = molecular target: Kdn(a2-3)Gal(b1-4)Glc
Summary of the method: as §1

[32] = molecular target: Kdn(a2-3)Gal(b1-4)GlcNAc
Summary of the method: as §1

[33] = molecular target: Kdn(a2-3)Gal(b1-4)[Fuc(a1-3)]GlcNAc
Summary of the method: as §1

[34] = molecular target: Kdn(a2-6)Gal(b1-4)GlcNAc
Summary of the method: as §1

[35] = molecular target: Man(a1-2)Man(a1-2)Man(a1-3)Man
Summary of the method: as §1

[36] = molecular target: Man(a1-2)Man(a1-2)Man(a1-6)[Man(a1-3)]Man
Summary of the method: as §1

[37] = molecular target: Man(a1-2)Man(a1-3)Man
Summary of the method: as §1

[38] = molecular target: Man(a1-2)Man(a1-3)[Man(a1-2)Man(a1-6)]Man
Summary of the method: as §1

B1: PX14375F-bfa-539-21-539 (Bacteroides fragilis) (protein)
chain: EDFLQKDPPSSPSQSVFWQKKSDFESALAGTYSVMYSGVFSQIMPCLDGLTDNAIVQHSEGTYGWAKTIAQGDLTPNQGGFVTDIYGNCYKGIARVHILMEQLDQYTGSDISADEKKFMLAQCKALRGYFYSWLYQCYKEVPVVTQSLDLNTMYQPKATRAEVLNRVMTDYDEAISELPDKLYSDSQTSGRFTVSAVKALKARILLFDAYDSNGKAISSKMEEVLTLLQSIKGYSLAARVRDNFISEKQLASPEIMFSVRFLRPNLTHSMDLYYGAWAVLDPTRNMVDAFECTDGKPWGESPLTVRPDESILYGNDDALKKAERAKMFMNRDRRLYESVNHSMMANFVDDGFKDEEVQVNESNNKGPTGFSALKYVQPTDVTPGYSTVSDADIVVLRYAHVLLMIAEAENEAHGATTTALNAINEVRTRSGQPAIEAGISQDDLRERIRNEWRIETCFEGLRYFQLKRWKLMDKRVNGVEDPAYPGYIKVYKPAFEFFPIPQSEIDKAGGVLKQDPAYE
Q: How did the “glycan array binding signal (z-score)” value [1] turn out when B1 was run?
A: Its value is 1.33.

Q: What about the “glycan array binding signal (z-score)” value [2] of the same binder?
A: Its value is 0.838.

Q: What about the “glycan array binding signal (z-score)” value [3] of the same binder?
A: Its value is -0.226.

Q: What about the “glycan array binding signal (z-score)” value [4] of the same binder?
A: Its value is 0.054.

Q: What about the “glycan array binding signal (z-score)” value [5] of the same binder?
A: The value was 0.248.

Q: What about the “glycan array binding signal (z-score)” value [6] of the same binder?
A: The value was -0.284.

Q: And the “glycan array binding signal (z-score)” value [7]?
A: Its value is 0.673.

Q: What about the “glycan array binding signal (z-score)” value [8] of the same binder?
A: Its value is -0.072.

Q: And the “glycan array binding signal (z-score)” value [9]?
A: The value was 0.228.

Q: What about the “glycan array binding signal (z-score)” value [10] of the same binder?
A: The value was -0.336.

Q: And the “glycan array binding signal (z-score)” value [11]?
A: The value was 0.54.

Q: What about the “glycan array binding signal (z-score)” value [12] of the same binder?
A: Its value is 0.886.

Q: And the “glycan array binding signal (z-score)” value [13]?
A: The value was 0.349.

Q: What about the “glycan array binding signal (z-score)” value [14] of the same binder?
A: The value was -0.811.

Q: And the “glycan array binding signal (z-score)” value [15]?
A: Its value is -0.8.

Q: And the “glycan array binding signal (z-score)” value [16]?
A: Its value is -0.467.

Q: And the “glycan array binding signal (z-score)” value [17]?
A: Its value is 0.067.

Q: And the “glycan array binding signal (z-score)” value [18]?
A: The value was 0.023.

Q: What about the “glycan array binding signal (z-score)” value [19] of the same binder?
A: The value was -0.03.

Q: And the “glycan array binding signal (z-score)” value [20]?
A: Its value is -0.102.

Q: What about the “glycan array binding signal (z-score)” value [21] of the same binder?
A: The value was -0.51.

Q: What about the “glycan array binding signal (z-score)” value [22] of the same binder?
A: The value was -0.55.

Q: What about the “glycan array binding signal (z-score)” value [23] of the same binder?
A: The value was -0.169.

Q: And the “glycan array binding signal (z-score)” value [24]?
A: Its value is -0.189.

Q: And the “glycan array binding signal (z-score)” value [25]?
A: The value was -0.818.

Q: What about the “glycan array binding signal (z-score)” value [26] of the same binder?
A: The value was -0.364.

Q: And the “glycan array binding signal (z-score)” value [27]?
A: Its value is -0.342.

Q: And the “glycan array binding signal (z-score)” value [28]?
A: The value was 0.711.

Q: What about the “glycan array binding signal (z-score)” value [29] of the same binder?
A: Its value is -0.258.

Q: What about the “glycan array binding signal (z-score)” value [30] of the same binder?
A: The value was -0.782.

Q: What about the “glycan array binding signal (z-score)” value [31] of the same binder?
A: Its value is -0.445.

Q: What about the “glycan array binding signal (z-score)” value [32] of the same binder?
A: The value was -0.831.

Q: What about the “glycan array binding signal (z-score)” value [33] of the same binder?
A: The value was -0.558.

Q: And the “glycan array binding signal (z-score)” value [34]?
A: Its value is -0.206.

Q: What about the “glycan array binding signal (z-score)” value [35] of the same binder?
A: Its value is -0.844.

Q: What about the “glycan array binding signal (z-score)” value [36] of the same binder?
A: The value was -0.687.

Q: What about the “glycan array binding signal (z-score)” value [37] of the same binder?
A: Its value is -0.201.

Q: And the “glycan array binding signal (z-score)” value [38]?
A: Its value is -0.626.

From the supplement of paper PMC8728848
